Test results published in PubChem BioAssay AID504332 (National Center for Advancing Translational Sciences (NCATS), 2011).
“And” between values parts separate entries of the source, which are not always exact repeats. Equal values may be shown once. The campaign covered roughly 350,000 compounds. About 31,000 (8.9%) were called active. The inconclusive results got no clear call from the source; some entries with a clear call stand among them for comparison. Calls come from the whole dose curve; as a rule, active = well fitted inhibition curve with a large enough effect; inconclusive = small, poorly fitted or top-dose-only effect; inactive = no such curve, though single readings can be large or run the other way. Potencies of inconclusive entries are doubtful fits and often do not repeat.

The compounds below were run against Histone-lysine N-methyltransferase EHMT2 (Homo sapiens) (UniProt Q96KQ7) (assay: qHTS Assay for Inhibitors of Histone Lysine Methyltransferase G9a). Conditions: G9a H3K9 monomethylation, AlphaScreen, 2 h; activity, negative = inhibition: at 59 µM (top of the series) unless noted.
Sequence of UniProt Q96KQ7 (Q96KQ7 whole entry, looked up): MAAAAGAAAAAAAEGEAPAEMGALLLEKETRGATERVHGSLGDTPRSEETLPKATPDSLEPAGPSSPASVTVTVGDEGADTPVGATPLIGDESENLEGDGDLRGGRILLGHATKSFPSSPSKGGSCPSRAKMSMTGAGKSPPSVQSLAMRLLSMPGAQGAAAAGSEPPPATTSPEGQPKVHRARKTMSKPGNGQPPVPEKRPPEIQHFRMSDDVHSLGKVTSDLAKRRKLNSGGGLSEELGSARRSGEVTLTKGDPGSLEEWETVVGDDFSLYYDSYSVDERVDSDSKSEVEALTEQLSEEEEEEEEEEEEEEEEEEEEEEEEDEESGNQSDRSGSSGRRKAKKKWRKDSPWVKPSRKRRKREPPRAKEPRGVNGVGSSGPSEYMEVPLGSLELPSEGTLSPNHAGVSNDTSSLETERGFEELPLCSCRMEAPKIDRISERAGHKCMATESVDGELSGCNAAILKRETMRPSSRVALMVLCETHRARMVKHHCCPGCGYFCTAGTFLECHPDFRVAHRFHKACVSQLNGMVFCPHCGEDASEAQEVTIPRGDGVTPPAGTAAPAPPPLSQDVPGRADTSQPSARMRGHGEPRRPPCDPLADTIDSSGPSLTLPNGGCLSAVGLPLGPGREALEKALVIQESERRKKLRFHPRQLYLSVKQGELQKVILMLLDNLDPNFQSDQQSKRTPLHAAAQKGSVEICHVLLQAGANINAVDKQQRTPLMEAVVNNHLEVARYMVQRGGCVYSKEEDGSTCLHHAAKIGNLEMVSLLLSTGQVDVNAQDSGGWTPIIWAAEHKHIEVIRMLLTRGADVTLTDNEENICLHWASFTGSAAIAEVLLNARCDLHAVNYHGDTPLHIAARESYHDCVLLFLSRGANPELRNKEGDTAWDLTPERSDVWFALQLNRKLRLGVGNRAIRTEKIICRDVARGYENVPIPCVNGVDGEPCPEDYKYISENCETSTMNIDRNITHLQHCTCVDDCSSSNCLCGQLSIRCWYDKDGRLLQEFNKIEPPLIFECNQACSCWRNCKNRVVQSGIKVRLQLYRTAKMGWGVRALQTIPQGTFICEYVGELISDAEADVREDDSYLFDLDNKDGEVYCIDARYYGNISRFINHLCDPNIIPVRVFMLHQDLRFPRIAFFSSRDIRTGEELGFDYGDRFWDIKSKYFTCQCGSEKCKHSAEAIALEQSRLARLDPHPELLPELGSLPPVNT
Outline: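 Enzyme 20 nM + cpd, 15 min RT; add b-H3K9 pep 500 nM / SAM 20 uM; 2 h RT; anti-H3K9me1 Ab 0.5 ug/mL + SA donor / anti-rabbit acceptor beads 20 ug/mL each, 10 min; AlphaScreen read.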
% is set by controls: 0 for no effect and ±100 for the full control effect; potency is the fitted concentration of half-maximal effect; tags give direction and shape of the fitted curve.
Note: nearly all actives have a fitted effect of over 75% in size.

Structure (SMILES) | Potency | activity, negative = inhibition
Cc1ccc(NNC(=O)c2cc(C)on2)c(C)c1 | active: 11.2 µM | –
O=C(Nc1cccc2oc(=O)ccc12)c1ccc([N+](=O)[O-])cc1[N+](=O)[O-] | inconclusive: 89.1 µM [inhibitor, single point] | –
COc1cc(C2NC(=O)C(C#N)=C(Nc3cccc(C)c3)S2)ccc1O (stereo not given) | active: 44.7 µM | –
CC(=O)c1ccc(-n2c(-c3cc(-c4ccco4)[nH]n3)n[nH]c2=S)cc1 | inconclusive: 1.58 µM [inhibitor, full curve, poor fit] | –
CCCCN=C1C([N+](=O)[O-])=CC=C2C1=NC1(CCCCC1)N2O | active: 11.2 µM | –
CC(=O)C1=C(O)C(=O)N(c2ccc(Br)cc2)C1c1ccc(Br)cc1 (stereo not given) | active: 50.1 µM | –
COc1cccc(CNCCCSc2nnnn2C)c1OC | inactive | –
Cc1ccc(C)n1CCN1CCN(CC(=O)Nc2cc(C(F)(F)F)ccc2Cl)CC1 | inconclusive: 79.4 µM [inhibitor, partial curve, poor fit] | –
CCOc1ccc(CCNC(=O)C(CCC(N)=O)NC(=O)OCc2ccccc2)cc1OCC (stereo not given) | inactive | –
COc1ccc(C(C(=O)NC2CCCCC2)N(C(=O)c2ccco2)c2ccccc2C(C)=O)cc1OC (stereo not given) | inactive | –
CCN(CC)S(=O)(=O)c1ccc2c(c1)nc(SCC(=O)N1CCOCC1)n2-c1ccccc1OC | active: 31.6 µM | –
COc1ccc(NC(=O)CCc2nnc3n(Cc4ccc(C)cc4)c(=O)c4ccccc4n23)cc1 | inactive | –
COCC(=O)N1CCC(n2nnc3cc(C(F)(F)F)ccc32)CC1 | inactive | –
CN(C)CCCN1C(=O)C(=O)/C(=C(/O)c2ccncc2)C1c1cccnc1 (stereo not given) | inconclusive: 89.1 µM [inhibitor, single point] | –
CC(=O)N1CC=CC1(C)C(=O)O (stereo not given) | active: 50.1 µM | –
COc1ccc2c(c1O)-c1ccccc1CCN(C)C2 | inactive | –
O=C1c2ccccc2C(Nc2ccccc2)N1c1ccc(Cl)cn1 (stereo not given) | inconclusive: 89.1 µM [inhibitor, single point] | –
CC1CN(S(=O)(=O)c2ccc(C(=O)Nc3nnc(-c4ccco4)o3)cc2)CC(C)O1 (stereo not given) | inconclusive: 79.4 µM [inhibitor, single point] | –
COc1ccc(NS(=O)(=O)c2ccc3[nH]c4c(c3c2)CCCCC4)cc1 | inconclusive: 3.98 µM [inhibitor, partial curve, poor fit] | –
Cc1ccc(NC(=O)c2nc[nH]c2C(=O)Nc2ccc(C)cc2)cc1 | inactive | –
CC(=O)Nc1ccccc1N(CC(O)Cn1c2ccccc2c2ccccc21)S(=O)(=O)c1ccc(C)cc1 (stereo not given) | inconclusive: 25.1 µM [inhibitor, single point] | –
CC(C)(C)n1nnnc1C(c1cccc(C#N)c1)N1CCCCCC1 (stereo not given) | active: 70.8 µM | –
CCN(CC)c1ccc(/C=N/NC(=S)NCc2ccco2)cc1 | inconclusive: 39.8 µM [inhibitor, single point] | –

Structure (SMILES) | Potency | activity, negative = inhibition
Cn1c(SCC(=O)NC(c2ccccc2)c2ccccc2)nnc1-c1cccs1 | – | inactive: -35.3% [at 12.7 µM]
O=C(COc1ccc2ccccc2c1)N1CCCC1 | inconclusive: 12.6 µM [inhibitor, single point] | –
Cc1ccc(-c2csc(NC(=S)NC(=O)/C=C/c3ccco3)n2)cc1 | inactive | –
CC(=O)c1ccc(N2CCN(C(=O)Nc3ccc(C(C)C)cc3)CC2)cc1 | inconclusive: 28.2 µM [inhibitor, partial curve, poor fit] and inconclusive: 89.1 µM [inhibitor, partial curve, poor fit] | –
COc1ccc(CCNC(=O)c2ccc3c(c2)ncn3-c2ccc(C(C)C)cc2)cc1OC | inconclusive: 22.4 µM [inhibitor, partial curve, poor fit] | –
COCCn1c(-c2ccco2)csc1=Nc1cccnc1 | inconclusive: 2.82 µM [inhibitor, partial curve, poor fit] | –
COc1ccc(NC(=S)N(Cc2ccc(C(=O)O)cc2)Cc2ccc(OC)c(OC)c2)cc1 | inactive | –
CCOC(=O)c1c(S(=O)(=O)N2CCC(C(=O)Nc3ccc(F)cc3F)CC2)c(C)n(C)c1C | inactive | –
COc1ccc(/C=N/N2C(=O)C3C4C=CC(C4)C3C2=O)cc1[N+](=O)[O-] (stereo not given) | inactive | –
Cc1[nH]n(C(N)=S)c(=O)c1N=Nc1cccc(Cl)c1 | active: 39.8 µM | –
O=C(c1ccc2ncsc2c1)N1CCN(c2cccc(C(F)(F)F)c2)CC1 | inconclusive: 17.8 µM [inhibitor, partial curve, poor fit] | –
COc1cccc(CN2CC(C(=O)NCCc3ccc(C)o3)CCC2=O)c1 (stereo not given) | active: 39.8 µM | –
O=C(NNc1cccc(Cl)n1)c1ccc(Cl)cc1Cl | inactive | –
COc1cccc(-n2c(=O)c3cc(OC)c(OC)cc3n(CC(=O)Nc3cc(C)[nH]n3)c2=O)c1 | inconclusive: 2.24 µM [inhibitor, partial curve, poor fit] | –
Cc1ccc(C(NC(=O)N2CCOCC2)=C(Cl)Cl)cc1F | inconclusive: 1.26 µM [inhibitor, full curve, poor fit] | –
C=C(C)C(=O)Nc1cccc(C2=NOC3(C2)C[C@@H](C(N)=O)N(C(=O)/C=C/C=C/C)C3)c1 (stereo not given in full) | inconclusive: 2 µM [inhibitor, partial curve, poor fit] | –
COc1cccc(NC(=O)Cn2cc(C(=O)c3ccco3)c3ccccc32)c1 | inactive | –
COc1cc(CO)cc(-c2cc(CO)cc(OC)c2OC)c1OC | inconclusive: 10 µM [inhibitor, partial curve, poor fit] | –
O=C(O)COc1ccccc1/C=C1\SC(=Nc2ccc(F)cc2)N(c2ccc(F)cc2)C1=O | inconclusive: 56.2 µM [inhibitor, partial curve, poor fit] | –
CC1(CC(=O)N/N=C/c2cc3c(cc2Br)OCO3)OCCO1 | inactive | –
COc1ccc(/C=N/NS(=O)(=O)c2ccc(C)cc2)cc1OC(=O)c1ccc(C)cc1 | inconclusive: 39.8 µM [inhibitor, single point] | –
Cc1ccc(C)c(OCCC(=O)OCC(=O)NCCc2ccc(S(N)(=O)=O)cc2)c1 | inactive | –
